This passage reports binding results from PMC10117100.

Sequences of proteins named here, by UniProt entry; tags and fusion partners are left off.
UniProt Q16254: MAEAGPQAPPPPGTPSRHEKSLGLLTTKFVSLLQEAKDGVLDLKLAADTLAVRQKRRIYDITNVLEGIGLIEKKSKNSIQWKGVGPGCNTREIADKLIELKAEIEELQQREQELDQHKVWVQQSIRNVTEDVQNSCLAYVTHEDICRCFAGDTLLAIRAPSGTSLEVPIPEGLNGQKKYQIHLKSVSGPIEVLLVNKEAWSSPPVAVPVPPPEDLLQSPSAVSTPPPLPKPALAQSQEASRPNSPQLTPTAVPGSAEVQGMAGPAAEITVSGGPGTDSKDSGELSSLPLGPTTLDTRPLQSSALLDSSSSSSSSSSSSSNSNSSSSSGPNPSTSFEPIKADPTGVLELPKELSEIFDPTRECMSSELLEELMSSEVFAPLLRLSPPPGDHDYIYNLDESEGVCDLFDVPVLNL
UniProt P03129: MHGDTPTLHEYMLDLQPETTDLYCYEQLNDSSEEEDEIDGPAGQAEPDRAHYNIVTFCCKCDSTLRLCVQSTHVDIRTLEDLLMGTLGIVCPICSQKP

Results are given in words; binding and its absence hold for the method and conditions named. In cells and extracts the contact can be indirect. Some binding calls cover weakened binding; strength is not graded here. For part of these data: Sequences can lack the tags named with a protein.

Test [1] addresses T1, endogenous E2F4 (38HK) (human (endogenous in 38HK)), Q16254. As to the kind of experiment: co-IP; nuclear extracts of 38HK stably expressing HA-ΔNp73α, sucrose gradient, fractions precipitated with anti-E2F4 Sepharose beads, Western blot. The note with it: remark: other sources report otherwise. In general terms: Immunoblotting shows a protein as a band on a membrane.
Test [2] deals with T1, endogenous E2F4 (38HK) (human …). Nature of the test: co-IP; total 38HK nuclear extract, anti-E2F4 antibody or IgG, Western blot of endogenous proteins. The note with it: remark: other sources report otherwise.
Test [3] has as its target Gluc1-16.E7 (human papillomavirus type 16) (UniProt P03129). Nature of the test: split reporter; Gaussia princeps protein complementation assay (GPCA): Gluc1 and Gluc2 N-terminal fusions co-transfected in HEK293T, luminescence of lysates after 48 h as normalized luminescence ratio (NLR); pairs count as interacting if NLR is above 5.
Test [4] concerns the target endogenous E2F4 (38HK) (human (endogenous in 38HK)) (UniProt Q16254). As to the kind of experiment: co-IP; nuclear extracts of 38HK stably expressing HA-ΔNp73α, sucrose gradient, fractions precipitated with anti-E2F4 Sepharose beads, Western blot.
The target is the same in test [5]. Nature of the test: co-IP; total 38HK nuclear extract, anti-E2F4 antibody or IgG, Western blot of endogenous proteins.

B1: endogenous p130 (38HK), Q08999 1-1139 (protein)
chain: MPSGGDQSPPPPPPPPAAAASDEEEEDDGEAEDAAPPAESPTPQIQQRFDELCSRLNMDEAARAEAWDSYRSMSESYTLEGNDLHWLACALYVACRKSVPTVSKGTVEGNYVSLTRILKCSEQSLIEFFNKMKKWEDMANLPPHFRERTERLERNFTVSAVIFKKYEPIFQDIFKYPQEEQPRQQRGRKQRRQPCTVSEIFHFCWVLFIYAKGNFPMISDDLVNSYHLLLCALDLVYGNALQCSNRKELVNPNFKGLSEDFHAKDSKPSSDPPCIIEKLCSLHDGLVLEAKGIKEHFWKPYIRKLYEKKLLKGKEENLTGFLEPGNFGESFKAINKAYEEYVLSVGNLDERIFLGEDAEEEIGTLSRCLNAGSGTETAERVQMKNILQQHFDKSKALRISTPLTGVRYIKENSPCVTPVSTATHSLSRLHTMLTGLRNAPSEKLEQILRTCSRDPTQAIANRLKEMFEIYSQHFQPDEDFSNCAKEIASKHFRFAEMLYYKVLESVIEQEQKRLGDMDLSGILEQDAFHRSLLACCLEVVTFSYKPPGNFPFITEIFDVPLYHFYKVIEVFIRAEDGLCREVVKHLNQIEEQILDHLAWKPESPLWEKIRDNENRVPTCEEVMPPQNLERADEICIAGSPLTPRRVTEVRADTGGLGRSITSPTTLYDRYSSPPASTTRRRLFVENDSPSDGGTPGRMPPQPLVNAVPVQNVSGETVSVTPVPGQTLVTMATATVTANNGQTVTIPVQGIANENGGITFFPVQVNVGGQAQAVTGSIQPLSAQALAGSLSSQQVTGTTLQVPGQVAIQQISPGGQQQKQGQSVTSSSNRPRKTSSLSLFFRKVYHLAAVRLRDLCAKLDISDELRKKIWTCFEFSIIQCPELMMDRHLDQLLMCAIYVMAKVTKEDKSFQNIMRCYRTQPQARSQVYRSVLIKGKRKRRNSGSSDSRSHQNSPTELNKDRTSRDSSPVMRSSSTLPVPQPSSAPPTPTRLTGANSDMEEEERGDLIQFYNNIYIKQIKTFAMKYSQANMDAPPLSPYPFVRTGSPRRIQLSQNHPVYISPHKNETMLSPREKIFYYFSNSPSKRLREINSMIRTGETPTKKRGILLEDGSESPAKRICPENHSALLRRLQDVANDRGSH
As for B1, the binding entry in test [1] and in test [2] was “binds” throughout.

B2: Gluc2-pRb (protein, UniProt P06400 1-928)
chain: MPPKTPRKTAATAAAAAAEPPAPPPPPPPEEDPEQDSGPEDLPLVRLEFEETEEPDFTALCQKLKIPDHVRERAWLTWEKVSSVDGVLGGYIQKKKELWGICIFIAAVDLDEMSFTFTELQKNIEISVHKFFNLLKEIDTSTKVDNAMSRLLKKYDVLFALFSKLERTCELIYLTQPSSSISTEINSALVLKVSWITFLLAKGEVLQMEDDLVISFQLMLCVLDYFIKLSPPMLLKEPYKTAVIPINGSPRTPRRGQNRSARIAKQLENDTRIIEVLCKEHECNIDEVKNVYFKNFIPFMNSLGLVTSNGLPEVENLSKRYEEIYLKNKDLDARLFLDHDKTLQTDSIDSFETQRTPRKSNLDEEVNVIPPHTPVRTVMNTIQQLMMILNSASDQPSENLISYFNNCTVNPKESILKRVKDIGYIFKEKFAKAVGQGCVEIGSQRYKLGVRLYYRVMESMLKSEEERLSIQNFSKLLNDNIFHMSLLACALEVVMATYSRSTSQNLDSGTDLSFPWILNVLNLKAFDFYKVIESFIKAEGNLTREMIKHLERCEHRIMESLAWLSDSPLFDLIKQSKDREGPTDHLESACPLNLPLQNNHTAADMYLSPVRSPKKKGSTTRVNSTANAETQATSAFQTQKPLKSTSLSLFYKKVYRLAYLRLNTLCERLLSEHPELEHIIWTLFQHTLQNEYELMRDRHLDQIMMCSMYGICKVKNIDLKFKIIVTAYKDLPHAVQETFKRVLIKEEEYDSIIVFYNSVFMQRLKTNILQYASTRPPTLSPIPHIPRSPYKFPSSPLRIPGGNIYISPLKSPYKISEGLPTPTKMTPRSRILVSIGESFGTSEKFQKINQMVCNSDRVLKRSAEGSNPPKPLKKLRFDIEGSDEADGSKHLPGESKFQQKLAEMTSTRTRMQKQKMNDSMDTSNKEEK
On to B2, for which the binding result in test [3] is “binds”.

B3: Gluc2-p107 (protein, UniProt P28749 1-1068)
chain: MFEDKPHAEGAAVVAAAGEALQALCQELNLDEGSAAEALDDFTAIRGNYSLEGEVTHWLACSLYVACRKSIIPTVGKGIMEGNCVSLTRILRSAKLSLIQFFSKMKKWMDMSNLPQEFRERIERLERNFEVSTVIFKKYEPIFLDIFQNPYEEPPKLPRSRKQRRIPCSVKDLFNFCWTLFVYTKGNFRMIGDDLVNSYHLLLCCLDLIFANAIMCPNRQDLLNPSFKGLPSDFHTADFTASEEPPCIIAVLCELHDGLLVEAKGIKEHYFKPYISKLFDRKILKGECLLDLSSFTDNSKAVNKEYEEYVLTVGDFDERIFLGADAEEEIGTPRKFTRDTPLGKLTAQANVEYNLQQHFEKKRSFAPSTPLTGRRYLREKEAVITPVASATQSVSRLQSIVAGLKNAPSDQLINIFESCVRNPVENIMKILKGIGETFCQHYTQSTDEQPGSHIDFAVNRLKLAEILYYKILETVMVQETRRLHGMDMSVLLEQDIFHRSLMACCLEIVLFAYSSPRTFPWIIEVLNLQPFYFYKVIEVVIRSEEGLSRDMVKHLNSIEEQILESLAWSHDSALWEALQVSANKVPTCEEVIFPNNFETGNGGNVQGHLPLMPMSPLMHPRVKEVRTDSGSLRRDMQPLSPISVHERYSSPTAGSAKRRLFGEDPPKEMLMDKIITEGTKLKIAPSSSITAENVSILPGQTLLTMATAPVTGTTGHKVTIPLHGVANDAGEITLIPLSMNTNQESKVKSPVSLTAHSLIGASPKQTNLTKAQEVHSTGINRPKRTGSLALFYRKVYHLASVRLRDLCLKLDVSNELRRKIWTCFEFTLVHCPDLMKDRHLDQLLLCAFYIMAKVTKEERTFQEIMKSYRNQPQANSHVYRSVLLKSIPREVVAYNKNINDDFEMIDCDLEDATKTPDCSSGPVKEERGDLIKFYNTIYVGRVKSFALKYDLANQDHMMDAPPLSPFPHIKQQPGSPRRISQQHSIYISPHKNGSGLTPRSALLYKFNGSPSKSLKDINNMIRQGEQRTKKRVIAIDSDAESPAKRVCQENDDVLLKRLQDVVSERANH
B3: the binding result in test [3] was “binds”.

B4: HA-ΔNp73α (protein, UniProt O15350-8 1-587)
chain: MLYVGDPARHLATAQFNLLSSTMDQMSSRAASASPYTPEHAASVPTHSPYAQPSSTFDTMSPAPVIPSNTDYPGPHHFEVTFQQSSTAKSATWTYSPLLKKLYCQIAKTCPIQIKVSTPPPPGTAIRAMPVYKKAEHVTDVVKRCPNHELGRDFNEGQSAPASHLIRVEGNNLSQYVDDPVTGRQSVVVPYEPPQVGTEFTTILYNFMCNSSCVGGMNRRPILIIITLEMRDGQVLGRRSFEGRICACPGRDRKADEDHYREQQALNESSAKNGAASKRAFKQSPPAVPALGAGVKKRRHGDEDTYYLQVRGRENFEILMKLKESLELMELVPQPLVDSYRQQQQLLQRPSHLQPPSYGPVLSPMNKVHGGMNKLPSVNQLVGQPPPHSSAATPNLGPVGPGMLNNHGHAVPANGEMSSSHSAQSMVSGSHCTPPPPYHADPSLVSFLTGLGCPNCIEYFTSQGLQSIYHLQNLTIEDLGALKIPEQYRMTIWRGLQDLKQGHDYSTAQQLLRSSNAATISIGGSGELQRQRVMEAVHFRVRHTITIPNRGGPGGGPDEWADFGFDLPDCKARKQPIKEEFTEAEIH
As to B4, in test [4], the binding result is recorded as “binds”.

B5: endogenous ΔNp73α (38HK) (protein, UniProt O15350-8 1-587)
chain: MLYVGDPARHLATAQFNLLSSTMDQMSSRAASASPYTPEHAASVPTHSPYAQPSSTFDTMSPAPVIPSNTDYPGPHHFEVTFQQSSTAKSATWTYSPLLKKLYCQIAKTCPIQIKVSTPPPPGTAIRAMPVYKKAEHVTDVVKRCPNHELGRDFNEGQSAPASHLIRVEGNNLSQYVDDPVTGRQSVVVPYEPPQVGTEFTTILYNFMCNSSCVGGMNRRPILIIITLEMRDGQVLGRRSFEGRICACPGRDRKADEDHYREQQALNESSAKNGAASKRAFKQSPPAVPALGAGVKKRRHGDEDTYYLQVRGRENFEILMKLKESLELMELVPQPLVDSYRQQQQLLQRPSHLQPPSYGPVLSPMNKVHGGMNKLPSVNQLVGQPPPHSSAATPNLGPVGPGMLNNHGHAVPANGEMSSSHSAQSMVSGSHCTPPPPYHADPSLVSFLTGLGCPNCIEYFTSQGLQSIYHLQNLTIEDLGALKIPEQYRMTIWRGLQDLKQGHDYSTAQQLLRSSNAATISIGGSGELQRQRVMEAVHFRVRHTITIPNRGGPGGGPDEWADFGFDLPDCKARKQPIKEEFTEAEIH
Regarding B5, the binding result in test [5] is recorded as “binds”.
